# Measured values published in the BET-seq Pho4 binding data (Le et al. 2018).
# This is one part of the list. These are noisy estimates, calculated here from bound and input reads.
# Biological target: T1, Pho4 (S. cerevisiae) (UniProt P07270)
# T1 sequence: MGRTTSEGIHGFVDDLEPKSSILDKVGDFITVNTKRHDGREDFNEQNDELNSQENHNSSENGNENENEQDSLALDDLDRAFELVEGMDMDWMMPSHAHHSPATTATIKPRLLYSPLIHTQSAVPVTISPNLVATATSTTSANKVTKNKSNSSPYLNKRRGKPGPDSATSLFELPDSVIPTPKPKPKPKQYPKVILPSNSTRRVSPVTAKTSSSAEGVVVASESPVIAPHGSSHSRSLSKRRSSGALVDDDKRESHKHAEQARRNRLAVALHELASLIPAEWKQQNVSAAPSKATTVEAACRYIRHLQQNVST
# Experiment: relative binding free energy (BET-seq); higher = weaker binding
# Conditions: reference: library average
row,Sequence,relative binding free energy
1,ATATTCACGTGTATGC,0.19 kcal/mol
2,CTATTCACGTGGGGCA,0.23 kcal/mol
3,TGGTGCACGTGGTGGA,-0.06 kcal/mol
4,GTGGCCACGTGTGGCG,-0.09 kcal/mol
5,ATTAGCACGTGAGTTA,0.24 kcal/mol
6,GATTTCACGTGGGCGA,0.45 kcal/mol
7,TATGACACGTGGTGAT,-0.05 kcal/mol
8,GGCGCCACGTGGCTGG,-0.09 kcal/mol
9,ATGGTCACGTGTGGAC,0.24 kcal/mol
10,AGTTTCACGTGGGGAT,0.14 kcal/mol
11,AGTGGCACGTGTTTCA,-0.23 kcal/mol
12,TTAAACACGTGGGATG,-0.12 kcal/mol
13,TGAGCCACGTGTTTAG,0.07 kcal/mol
14,CGTGTCACGTGGTTAT,0.07 kcal/mol
15,GCGTTCACGTGGGTTT,0.31 kcal/mol
16,GTAAGCACGTGGATGA,-0.06 kcal/mol
17,TTGATCACGTGCGATT,0.22 kcal/mol
18,AGTGTCACGTGGTAGC,0.09 kcal/mol
19,TGGTGCACGTGATACT,0.05 kcal/mol
20,CTTCGCACGTGGTTAT,-0.06 kcal/mol
21,TTAGTCACGTGCTTGT,0.12 kcal/mol
22,CTCTTCACGTGGTGTG,0.23 kcal/mol
23,GGGCTCACGTGAGCTG,0.44 kcal/mol
24,TACGGCACGTGATTGT,0.15 kcal/mol
25,ACTGTCACGTGGCTGT,0.12 kcal/mol

row,Sequence,relative binding free energy
1,GGAGCCACGTGTGGTT,0.11 kcal/mol
2,GTGGTCACGTGACGGT,0.14 kcal/mol
3,CATGACACGTGTAGGG,0.03 kcal/mol
4,GCTGTCACGTGGTTTT,0.14 kcal/mol
5,TGGAACACGTGGGGGC,-0.12 kcal/mol
6,AGTTTCACGTGTGGTC,0.36 kcal/mol
7,TAGGTCACGTGGTTCA,0.02 kcal/mol
8,TTATTCACGTGACGGT,0.26 kcal/mol
9,TTTATCACGTGTTTCT,0.08 kcal/mol
10,TGCGACACGTGTAGGT,0.06 kcal/mol
11,GTTATCACGTGTTGCT,0.09 kcal/mol
12,ACAGTCACGTGGGGCT,0.05 kcal/mol
13,AGTCCCACGTGTGGTG,-0.07 kcal/mol
14,TTTAGCACGTGGGTAA,-0.23 kcal/mol
15,ACGGACACGTGGTGGA,-0.04 kcal/mol
16,CGAGGCACGTGTGAGA,-0.05 kcal/mol
17,TGGTTCACGTGGTTTT,0.22 kcal/mol
18,GTAGTCACGTGATAAG,0.2 kcal/mol
19,CGATGCACGTGGTGTA,-0.15 kcal/mol
20,TGGAGCACGTGGCATT,-0.22 kcal/mol
21,TAAGTCACGTGAGCGG,0.14 kcal/mol
22,TGCGGCACGTGTTATT,-0.09 kcal/mol
23,GTGTACACGTGGCTTG,0.08 kcal/mol
24,TCGTTCACGTGCCGGG,0.41 kcal/mol
25,TATAGCACGTGGGCTT,-0.18 kcal/mol

row,Sequence,relative binding free energy
1,TTAAACACGTGAAGTA,0.29 kcal/mol
2,ATTTGCACGTGGTGTT,-0.09 kcal/mol
3,CGGGTCACGTGCGGCT,0.04 kcal/mol
4,GGGTGCACGTGCATTT,0.02 kcal/mol
5,GATGGCACGTGTTGGA,0.02 kcal/mol
6,GGTTTCACGTGGTCTA,0.4 kcal/mol
7,TGTGTCACGTGTGAGT,0.16 kcal/mol
8,TGGAGCACGTGAAAGT,0.24 kcal/mol
9,GCATTCACGTGTTTTG,0.22 kcal/mol
10,GAGATCACGTGTGGAT,0.42 kcal/mol
11,GGTTCCACGTGGGATG,0.04 kcal/mol
12,ATGTGCACGTGAGCGG,0 kcal/mol
13,TGGGACACGTGTTACG,0.1 kcal/mol
14,TAATGCACGTGGGTCG,-0.21 kcal/mol
15,CGTGACACGTGATGTT,0.04 kcal/mol
16,CGGGACACGTGGGGCA,-0.2 kcal/mol
17,AGGTTCACGTGTGTAC,0.31 kcal/mol
18,ATTTTCACGTGATTTT,0.33 kcal/mol
19,TTTAGCACGTGAAGTG,0.15 kcal/mol
20,ATGGTCACGTGTCTAA,0.18 kcal/mol
21,AGGTGCACGTGCTCGG,-0.11 kcal/mol
22,GGACTCACGTGGTATG,0.2 kcal/mol
23,GGAGACACGTGGTGAT,-0.02 kcal/mol
24,TGCGGCACGTGGTGAG,-0.07 kcal/mol
25,AAGGACACGTGGGGAA,-0.03 kcal/mol

row,Sequence,relative binding free energy
1,GGGGCCACGTGCGGAG,-0.24 kcal/mol
2,CGTGCCACGTGGGATG,-0.13 kcal/mol
3,GGTAGCACGTGGTTCA,0 kcal/mol
4,GTATCCACGTGTGTGG,-0.08 kcal/mol
5,AATCTCACGTGGGGAG,0.22 kcal/mol
6,GATTGCACGTGGACGA,0.29 kcal/mol
7,TGAAACACGTGGTGTG,-0.19 kcal/mol
8,GTTGTCACGTGTCTAG,0.17 kcal/mol
9,TGGAGCACGTGTTGGT,-0.08 kcal/mol
10,TTGTTCACGTGGATTC,0.26 kcal/mol
11,GTGTTCACGTGCGCAG,0.14 kcal/mol
12,TCATACACGTGGGAGT,-0.08 kcal/mol
13,TTGTTCACGTGGCATA,0.07 kcal/mol
14,CGTATCACGTGAGATT,0.26 kcal/mol
15,GTACTCACGTGTATTT,0.3 kcal/mol
16,ATGGGCACGTGTAACG,-0.11 kcal/mol
17,GGGGACACGTGAGATG,0.36 kcal/mol
18,ATTGGCACGTGTATGC,-0.04 kcal/mol
19,TTGTGCACGTGGTTAC,-0.22 kcal/mol
20,TGCGGCACGTGATGGA,0.07 kcal/mol
21,GGGGTCACGTGCGGCA,0.01 kcal/mol
22,GTAGGCACGTGGATTG,0.09 kcal/mol
23,AGGATCACGTGCTGTT,0.13 kcal/mol
24,TTGGGCACGTGTCCGT,-0.03 kcal/mol
25,TCTGTCACGTGGGGAA,-0.18 kcal/mol

row,Sequence,relative binding free energy
1,TGGTACACGTGTCGGA,0.14 kcal/mol
2,ACAGGCACGTGAAGGG,0.16 kcal/mol
3,GAAGTCACGTGGGGTC,0.17 kcal/mol
4,AACAGCACGTGTTTTG,0.05 kcal/mol
5,TTGGTCACGTGTTGGC,0.34 kcal/mol
6,GTTTACACGTGCGGTA,0.17 kcal/mol
7,CTTTTCACGTGATAGA,0.35 kcal/mol
8,CGAGGCACGTGGGATG,-0.15 kcal/mol
9,ATGGGCACGTGTCGGG,-0.03 kcal/mol
10,TGGTACACGTGTGAAA,0.12 kcal/mol
11,TGGTGCACGTGCGGAA,0.04 kcal/mol
12,AAGTACACGTGGAGTT,0.08 kcal/mol
13,TTCGCCACGTGGAGTG,-0.03 kcal/mol
14,GGTGTCACGTGGTGGG,0.08 kcal/mol
15,TAGCGCACGTGGGGTG,-0.33 kcal/mol
16,TGTTCCACGTGCAGGT,0.12 kcal/mol
17,TAGGACACGTGTTAGG,0.03 kcal/mol
18,GGTTTCACGTGCAGCG,0.17 kcal/mol
19,CTGTGCACGTGGTTAT,-0.22 kcal/mol
20,AAGGTCACGTGGGGAA,0.06 kcal/mol
21,ACATTCACGTGGTGTG,0.18 kcal/mol
22,ATTTTCACGTGTGGGT,0.3 kcal/mol
23,TGTTTCACGTGCAATT,0.36 kcal/mol
24,GTGCTCACGTGGGAGG,0.25 kcal/mol
25,ATATTCACGTGAAGAT,0.27 kcal/mol

row,Sequence,relative binding free energy
1,ACTGGCACGTGGGGAT,-0.19 kcal/mol
2,CATGGCACGTGGAGGT,-0.03 kcal/mol
3,TTTGTCACGTGCTAAG,0.14 kcal/mol
4,GTTTTCACGTGTTGTT,0.4 kcal/mol
5,AATCTCACGTGTTGGT,0.16 kcal/mol
6,AGTCTCACGTGGATGG,0.13 kcal/mol
7,TCTGGCACGTGGGATG,-0.1 kcal/mol
8,AGAGGCACGTGAGGGC,0.21 kcal/mol
9,GGGTTCACGTGTGAGA,0.39 kcal/mol
10,ATGGTCACGTGATATC,0.33 kcal/mol
11,ATGTACACGTGAGTTA,0.25 kcal/mol
12,AATGACACGTGTCTTT,0.16 kcal/mol
13,GACTGCACGTGGTGAG,-0.02 kcal/mol
14,TTAGTCACGTGACGCG,0.22 kcal/mol
15,GTGTTCACGTGTATCT,0.18 kcal/mol
16,CGGCGCACGTGTGTGG,-0.16 kcal/mol
17,GTTGGCACGTGTATAG,-0.06 kcal/mol
18,AGGGCCACGTGGGCTA,-0.13 kcal/mol
19,GGGAGCACGTGAGATA,0.19 kcal/mol
20,TGTTACACGTGGAAGT,0.15 kcal/mol
21,GATGCCACGTGGGGGA,-0.11 kcal/mol
